Some of the results follow.
B1: PhoQ; a variant is named by its letters at X, in order, P23837 (parent)
chain: MKKLLRLFFPLSLRVRFLLATAAVVLVLSLAYGMVALIGYSVSFDKTTFRLLRGESNLFYTLAKWENNKLHVELPENIDKQSPTMTLIYDENGQLLWAQRDVPWLMKMIQPDWLKSNGFHEIEADVNDTSLLLSGDHSIQQQLQEVREDDDDAEMTHSVAVNVYPATSRMPKLTIVVVDTIPVELKSSYMVWSWFIYVLSANLLLVIPLLWVAAWWSLRPIEALAKEVRELEEHNRELLNPATTRELTSLVRNLNRLLKSERERYDKYRTTLTDLTHSLKTPLXXLQXXLRSLRSEKMSVSDAEPVMLEQISRISQQIGYYLHRASMRGGTLLSRELHPVAPLLDNLTSALNKVYQRKGVNISLDISPEISFVGEQNDFVEVMGNVLDNACKYCLEFVEISARQTDEHLYIVVEDDGPGIPLSKREVIFDRGQRVDTLRPGQGVGLAVAREITEQYEGKIVAGESMLGGARMEVIFGRQHSAPKDE

Variants of: B1
Experiment: enrichment ratio after two sorts for PhoP signalling (ratio (wild type AVST 3.29)); higher = more functional
Settings: with PhoP (E. coli)

Variant | enrichment ratio
VRSP | ≤ 0.25
LFFC | ≤ 0.25
HSDF | ≤ 0.25
GETG | ≤ 0.25
VIKF | ≤ 0.25
SMHF | ≤ 0.25
DLDI | ≤ 0.25
HGRQ | ≤ 0.25
ALPY | ≤ 0.25
YRYA | ≤ 0.25
DLNG | ≤ 0.25
HQLG | ≤ 0.25
DYAY | ≤ 0.25
LCYV | ≤ 0.25
ECKA | ≤ 0.25
QPRW | ≤ 0.25
YFTH | ≤ 0.25
QGAT | ≤ 0.25
FEDY | ≤ 0.25
CLFV | ≤ 0.25
YKDF | ≤ 0.25

Variant | enrichment ratio
NMCT | ≤ 0.25
ARSA | ≤ 0.25
QYWR | ≤ 0.25
ADHN | ≤ 0.25
LKKT | ≤ 0.25
CMWS | ≤ 0.25
VCVT | ≤ 0.25
WFHD | ≤ 0.25
DCRA | ≤ 0.25
FGQW | ≤ 0.25
NPDD | ≤ 0.25
IKPA | ≤ 0.25
HHPM | ≤ 0.25
GFGR | ≤ 0.25
PYNK | ≤ 0.25
DDFS | ≤ 0.25
DDWY | ≤ 0.25
VARY | ≤ 0.25
SSST | 12.7
WSSH | ≤ 0.25
WTRF | ≤ 0.25

Variant | enrichment ratio
YLGS | ≤ 0.25
NQND | ≤ 0.25
QKMR | ≤ 0.25
KHLW | ≤ 0.25
ADLG | 3.46
MHYC | ≤ 0.25
GYVK | ≤ 0.25
WMIS | ≤ 0.25
IYHG | ≤ 0.25
TKKV | ≤ 0.25
IPMV | ≤ 0.25
VRFS | ≤ 0.25
ECCP | ≤ 0.25
VKQG | ≤ 0.25
IFEK | ≤ 0.25
QQLW | ≤ 0.25
MFRV | ≤ 0.25
TLEF | 0.459
KRHH | ≤ 0.25
QVWV | ≤ 0.25
VWPM | ≤ 0.25

Variant | enrichment ratio
TKMW | ≤ 0.25
ALAA | ≤ 0.25
DEWS | ≤ 0.25
FKEW | ≤ 0.25
CMTL | ≤ 0.25
PIYV | ≤ 0.25
MIIY | ≤ 0.25
SAKK | ≤ 0.25
LAGH | ≤ 0.25
RDIG | ≤ 0.25
RLDP | ≤ 0.25
TWNY | ≤ 0.25
KVEL | ≤ 0.25
PKST | ≤ 0.25
TKQK | ≤ 0.25
YYFF | ≤ 0.25
IECQ | 6.16
HYPG | ≤ 0.25
ETHY | ≤ 0.25
FASN | ≤ 0.25
TQPH | ≤ 0.25
